PubChem BioAssay (Tox21)
This list was built around the results that the source calls inconclusive (neither active nor inactive); the mix of calls is not that of the screen. For part of these data: Potencies of inconclusive entries are doubtful fits and often do not repeat. Calls of active or inactive are those of the source. Unless noted, calls follow the shape of the dose curve; as a rule, active = well fitted curve in the direction sought with a large enough effect in the repeat runs; inconclusive = weak or mixed curves; inactive = no such curve, though single readings can be large; an effect the other way counts as inactive or inconclusive.

Legend:
[1] = qHTS assay for identifying genotoxic compounds that show differential cytotoxicity against isogenic chicken DT40 cell lines with known DNA damage response pathways - wild type cell line (AID 743012); settings: DT40 wild type chicken cells viability, CellTiter-Glo, 40 h; activity change, negative = cytotoxicity: at 68.4 µM (top of the series) unless noted; also: nearly all actives have a fitted effect of over 60% in size; also: potency is read from the fitted curve at half-maximal effect; as to activity change, negative = cytotoxicity: % is scaled to controls: 0 for no effect and ±100 for the full control effect
How it was run: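 Luminescent ATP viability signal (CellTiter-Glo, 30 min RT) recorded after wild type DT40 cells were incubated with compounds for 40 h at 37 C/5% CO2.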

[2] = biological target: Androgen receptor (Homo sapiens) (UniProt P10275); experiment: qHTS assay to identify small molecule agonists of the androgen receptor (AR) signaling pathway (AID 743036; active = well fitted activation curve with a large enough effect in the signal ratio in the repeat runs, with a control signal flat, not every such curve was filed as active; inconclusive = weak or mixed curves, or effect the other way; inactive = no such curve, though single readings can be large or run the other way; the % refers to the signal ratio; also: % is scaled to controls: 0 for no effect and ±100 for the full control effect); settings: HEK293 AR-UAS-bla GripTite, beta-lactamase FRET ratio, 16 h; activation: at 62.4 µM (top of the series) unless noted
How it was run: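 Fluorescence from a beta-lactamase FRET substrate served as read-out in AR-UAS-bla GripTite HEK293 cells. Cells were treated with DMSO-dissolved compounds for 16 h at 37C, then with LiveBLAzer B/G substrate for 2 h at room temperature.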

[3] = qHTS assay to identify small molecule antagonists of the thyroid receptor (TR) signaling pathway - cell viability counter screen (AID 743064); settings: GH3.TRE-Luc viability, CellTiter-Fluor, 24 h; activity change, negative = cytotoxic: at 70.3 µM (top of the series) unless noted; also: nearly all actives have a fitted effect of over 50% in size; also: potency is read from the fitted curve at half-maximal effect
How it was run: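 Fluorescence from CellTiter-Fluor, added after 23.5 h exposure at 37 °C, reported viability of GH3.TRE-Luc cells co-treated with compound and 1 nM T3. Measured in the same wells as the luciferase TR readout.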

[4] = qHTS assay to identify small molecule antagonists of the thyroid receptor (TR) signaling pathway (AID 743065); also: potency is read from the fitted curve at half-maximal effect; nearly all actives have a fitted effect of over 55% in size
How it was run: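 GH3.TRE-Luc rat pituitary cells (two TREs driving luciferase) were dosed with compound, then stimulated with 1 nM T3 (final) for 23.5 h at 37 C. ONE-Glo luminescence was the read-out, with CellTiter-Fluor fluorescence as the cytotoxicity counter-screen.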

[5] = qHTS assay to identify small molecule antagonists of the estrogen receptor alpha (ER-alpha) signaling pathway - cell viability counter screen (AID 743074; calls by dose curve;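 also: HEK293 cells carrying ER-alpha-UAS-bla reporter stimulated with 17beta-estradiol; nearly all actives have a fitted effect of over 45% in size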; also: potency is read from the fitted curve at half-maximal effect)
[6] = biological target: Androgen receptor (Homo sapiens) (UniProt P10275); experiment: qHTS assay to identify small molecule antagonists of the androgen receptor (AR) signaling pathway (AID 743035; active = well fitted inhibition curve with a large enough effect in the signal ratio in the repeat runs, not every such curve was filed as active; inconclusive = weak or mixed curves, or effect the other way; inactive = no such curve, though single readings can be large or run the other way; the % refers to the signal ratio; also: % is scaled to controls: 0 for no effect and ±100 for the full control effect); settings: HEK293 AR-UAS-bla, R1881-stimulated, beta-lactamase FRET, 16 h
How it was run: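 Quantitative HTS of the Tox21 10K library used HEK293 AR-UAS-bla cells stimulated with R1881 alongside compound for 16 h at 37C, followed by beta-lactamase FRET detection (LiveBLAzer B/G, 2 h, RT).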

[7] = qHTS assay to identify small molecule antagonists of the estrogen receptor alpha (ER-alpha) signaling pathway using the BG1 cell line - cell viability counter screen (AID 743081);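 also: compound given together with 17beta-estradiol as the ER stimulus; nearly all actives have a fitted effect of over 45% in size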; also: potency is read from the fitted curve at half-maximal effect
[8] = biological target: Estrogen receptor (Homo sapiens) (UniProt P03372); experiment: qHTS assay to identify small molecule agonists of the estrogen receptor alpha (ER-alpha) signaling pathway using the BG1 cell line (AID 743079); settings: BG1Luc4E2 cells, ERE-luciferase agonist, 22 h; activation: at 70.3 µM (top of the series) unless noted; also: nearly all actives have a fitted effect of over 20% in size; also: potency is read from the fitted curve at half-maximal effect
[9] = biological target: Estrogen receptor (Homo sapiens) (UniProt P03372); experiment: qHTS assay to identify small molecule agonists of the estrogen receptor alpha (ER-alpha) signaling pathway (AID 743075; calls by dose curve;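 also: HEK293 GripTite cells with ER-alpha and UAS-driven beta-lactamase reporter; potency is read from the fitted curve at half-maximal effect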)
[10] = biological target: Estrogen receptor (Homo sapiens) (UniProt P03372); experiment: qHTS assay to identify small molecule antagonists of the estrogen receptor alpha (ER-alpha) signaling pathway (AID 743069; active = well fitted curve in the direction sought with a large enough effect in the signal ratio in the repeat runs, not every such curve was filed as active; inconclusive = weak or mixed curves, or effect the other way; inactive = no such curve, though single readings can be large or run the other way; the % refers to the signal ratio; also: potency is read from the fitted curve at half-maximal effect); settings: HEK293 ER-alpha-UAS-bla, beta-lactamase ratio, antagonist mode; activity, negative = inhibition: at 69.4 µM (top of the series) unless noted
How it was run: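 Beta-lactamase FRET fluorescence is read after 2 hr at room temperature with LiveBLAzer B/G substrate. Before that, ER-alpha-bla HEK293 cells sit 4 hr after plating, then receive compound plus 17beta-estradiol and incubate 18 hr at 37C.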

[11] = tested on: thyroid hormone receptor (rat, GH3 cells); experiment: qHTS assay to identify small molecule agonists of the thyroid receptor (TR) signaling pathway (AID 743066; calls by dose curve; also: % is scaled to controls: 0 for no effect and ±100 for the full control effect); settings: GH3.TRE-Luc cells, TR agonist luciferase, 24 h; activation: at 83.9 µM (top of the series) unless noted
Aromatase (Homo sapiens) = Aromatase (Homo sapiens) (UniProt P11511); experiment: qHTS assay to identify aromatase inhibitors (AID 743083); also: nearly all actives have a fitted effect of over 55% in size; also: potency is read from the fitted curve at half-maximal effect
[12] = qHTS assay to identify aromatase inhibitors - cell viability counter screen (AID 743084); settings: MCF-7 aro ERE viability, CellTiter-Fluor, 24 h; activity change, negative = cytotoxicity: at 70.3 µM (top of the series);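 also: cells stimulated with testosterone during compound exposure; % is scaled to controls: 0 for no effect and ±100 for the full control effect; nearly all actives have a fitted effect of over 55% in size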
Tags tell the direction and shape of the fitted curve or compound fluorescence and quenching.

UniProt P03372, sequence (P03372 whole entry, looked up): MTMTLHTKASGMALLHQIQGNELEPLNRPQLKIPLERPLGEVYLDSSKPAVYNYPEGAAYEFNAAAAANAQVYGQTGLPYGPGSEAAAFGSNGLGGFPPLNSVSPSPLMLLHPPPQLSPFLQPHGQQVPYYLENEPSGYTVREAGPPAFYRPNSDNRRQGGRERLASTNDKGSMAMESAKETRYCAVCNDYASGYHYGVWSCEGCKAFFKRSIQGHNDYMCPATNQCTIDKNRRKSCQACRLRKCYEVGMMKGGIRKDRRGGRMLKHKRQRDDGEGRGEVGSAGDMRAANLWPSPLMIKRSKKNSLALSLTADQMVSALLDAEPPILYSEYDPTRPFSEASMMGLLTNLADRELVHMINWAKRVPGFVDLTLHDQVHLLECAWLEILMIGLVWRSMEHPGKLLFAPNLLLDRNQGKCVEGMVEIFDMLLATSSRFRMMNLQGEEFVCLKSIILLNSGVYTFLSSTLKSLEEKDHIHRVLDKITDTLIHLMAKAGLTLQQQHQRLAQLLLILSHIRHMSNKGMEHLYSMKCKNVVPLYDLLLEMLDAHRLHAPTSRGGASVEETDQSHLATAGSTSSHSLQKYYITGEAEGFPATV
UniProt P10275, sequence (P10275 whole entry, looked up): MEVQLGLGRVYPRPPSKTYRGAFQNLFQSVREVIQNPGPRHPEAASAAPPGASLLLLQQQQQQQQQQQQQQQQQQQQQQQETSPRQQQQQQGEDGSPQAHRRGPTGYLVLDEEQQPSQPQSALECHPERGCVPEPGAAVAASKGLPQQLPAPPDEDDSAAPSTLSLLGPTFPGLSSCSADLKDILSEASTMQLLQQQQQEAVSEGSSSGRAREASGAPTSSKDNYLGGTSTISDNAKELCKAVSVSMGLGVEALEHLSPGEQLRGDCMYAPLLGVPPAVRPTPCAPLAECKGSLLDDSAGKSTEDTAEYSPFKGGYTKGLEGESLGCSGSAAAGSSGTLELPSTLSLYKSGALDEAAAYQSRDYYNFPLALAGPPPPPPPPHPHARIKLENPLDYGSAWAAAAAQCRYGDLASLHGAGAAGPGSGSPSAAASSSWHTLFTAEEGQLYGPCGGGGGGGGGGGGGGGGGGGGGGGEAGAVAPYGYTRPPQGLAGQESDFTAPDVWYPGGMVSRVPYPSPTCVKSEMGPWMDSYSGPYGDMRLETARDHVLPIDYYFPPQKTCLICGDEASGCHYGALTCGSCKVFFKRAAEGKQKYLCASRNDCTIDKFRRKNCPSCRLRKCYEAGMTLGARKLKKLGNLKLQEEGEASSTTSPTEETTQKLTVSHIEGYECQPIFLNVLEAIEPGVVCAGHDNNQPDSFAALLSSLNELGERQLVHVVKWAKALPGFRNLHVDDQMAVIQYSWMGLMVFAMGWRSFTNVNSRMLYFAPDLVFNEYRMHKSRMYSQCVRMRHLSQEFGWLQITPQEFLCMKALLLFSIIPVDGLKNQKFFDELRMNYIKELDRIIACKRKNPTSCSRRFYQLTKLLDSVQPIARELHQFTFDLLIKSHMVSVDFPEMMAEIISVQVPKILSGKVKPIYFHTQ
UniProt P11511, sequence (P11511 whole entry, looked up): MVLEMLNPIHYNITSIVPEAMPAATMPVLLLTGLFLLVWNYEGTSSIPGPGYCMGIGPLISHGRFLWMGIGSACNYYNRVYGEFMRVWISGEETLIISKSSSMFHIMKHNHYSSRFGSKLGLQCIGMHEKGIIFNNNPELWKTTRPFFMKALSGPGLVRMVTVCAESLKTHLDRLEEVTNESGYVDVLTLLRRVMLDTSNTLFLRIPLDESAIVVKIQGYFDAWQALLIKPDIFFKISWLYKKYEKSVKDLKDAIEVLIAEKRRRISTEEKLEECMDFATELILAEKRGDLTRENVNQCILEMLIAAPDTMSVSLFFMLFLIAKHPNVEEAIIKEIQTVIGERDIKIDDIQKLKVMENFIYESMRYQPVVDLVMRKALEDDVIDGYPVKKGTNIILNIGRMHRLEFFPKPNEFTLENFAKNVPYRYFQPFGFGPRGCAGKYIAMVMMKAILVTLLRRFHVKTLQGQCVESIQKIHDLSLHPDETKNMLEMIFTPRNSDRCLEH

With ClCCl the Potency [1] was inconclusive: 0.24 µM [rising, single point] and the Potency [2] was “inactive”.

In the case of Cc1ccc(C(C)c2ccc(C)c(C)c2)cc1C, the Potency [1] is reported as “inactive”, the Potency [3] is reported as “inactive” and the Potency [4] is reported as inconclusive: 68.6 µM [inhibitor, partial curve, poor fit]. For the same compound, the Potency [5] was “inactive”.

In the case of CCN(CC)CCNC(=O)c1cc(Cl)c(N)cc1OC, the Potency [1] is reported as “inactive” and the Potency [3] is reported as “inactive”.

With Cc1ccc(C)c(C)c1 the Potency [1] was “inactive”, the activity change, negative = inhibition ([6]; activity change, negative = inhibition: at 58.5 µM (top of the series) unless noted) was inconclusive: 15.9% [at 78.9 µM] and the activity change, negative = inhibition ([6]; at 58.5 µM (top of the series)) was inactive: 6.43%. The Potency [7] was “inactive”.

In the case of COc1ccc(CCN(C)CCCN2CCc3cc(OC)c(OC)cc3CC2=O)cc1OC, the Potency [1] is reported as inconclusive: 33.5 µM [cytotoxic, partial curve, poor fit], the Potency [3] is reported as “inactive” and the Potency [8] is reported as “inactive”.

In the case of C=C(C)[C@H]1CC=C(C)C(=O)C1, the Potency [1] is reported as “inactive” and the Potency [5] is reported as inconclusive: 22.3 µM [cytotoxic, full curve].

For CCCCCCCCCCCC(=O)OCC(C)OC(=O)CCCCC(=O)O (centres undefined), the Potency [1] was inconclusive: 33.5 µM [cytotoxic, single point], the Potency [3] was “inactive” and the Potency [9] was inconclusive: 0.535 µM [falling, full curve].

For COC(=O)CC(=O)OC, the Potency [1] was “inactive”, the Potency [10] was “inactive” and the Potency [5] was “inactive”.

In the case of NC[C@H]1O[C@H](O[C@H]2[C@H](O[C@@H]3O[C@H](CO)[C@@H](O)[C@H]3O)C(O)[C@H](N)C[C@@H]2N)[C@H](N)[C@@H](O)[C@@H]1O (some centres undefined), the Potency [1] is reported as “inactive” and the Potency [11] is reported as “inactive”.

In the case of CCCCCCCCCCCCCCCCCl, the Potency [1] is reported as inconclusive: 0.136 µM [rising, single point], the Potency [3] is reported as “inactive” and the Potency [5] is reported as “inactive”.

In the case of CC/C(C)=N\O[Si](C)(O/N=C(\C)CC)O/N=C(\C)CC, the Potency [1] is reported as “inactive”, the Potency [10] is reported as “inactive” and the Potency [8] is reported as “inactive”.

With O=C1c2ccccc2C(=O)c2c(O)ccc(O)c21 the Potency [1] was inconclusive: 6.11 µM [cytotoxic, partial curve, poor fit], the Potency [3] was inconclusive: 19.3 µM [cytotoxic, partial curve] and the Potency [4] was inconclusive: 6.86 µM [inhibitor, partial curve, poor fit]. The Potency [7] was inconclusive: 10.9 µM [cytotoxic, partial curve] and the Potency (Aromatase (Homo sapiens)) was inconclusive: 48.6 µM [inhibitor, partial curve].

In the case of CC(=O)OC(C)C, the Potency [1] is reported as “inactive”, the Potency [3] is reported as inconclusive: 77 µM [rising, partial curve, poor fit] and the Potency [8] is reported as inconclusive: 68.6 µM [activator, partial curve, poor fit]. The activation [8] was inconclusive: -15.9% [phenotype inactive].

With C[CH2][Ge]([Cl])([CH2]C)[CH2]C the Potency [1] was inconclusive: 56.4 µM [rising, partial curve, poor fit], the Potency [3] was inconclusive: 0.502 µM [rising, single point] and the Potency [5] was inconclusive: 56.8 µM [cytotoxic, single point].

With CCCCCCCCS the Potency [1] was inconclusive: 0.62 µM [rising, full curve], the Potency [3] was inconclusive: 78.1 µM [rising, single point] and the Potency [10] was inconclusive: 27.9 µM [fluorescent, partial curve, poor fit]. The Potency [5] was inconclusive: 17.6 µM [rising, full curve, poor fit].

For CCCC(=O)CC, the Potency [1] was “inactive”, the Potency [3] was “inactive” and the Potency [8] was active: 28.1 µM.

For CC1=CC[C@H]2C[C@@H]1C2(C)C, the Potency [1] was “inactive” and the Potency [5] was “inactive”.

For CC(C)C(OC(=O)c1ccccc1)C(C)(C)COC(=O)c1ccccc1 (centres undefined), the Potency [1] was active: 21.7 µM, the Potency [3] was inconclusive: 68.6 µM [cytotoxic, single point] and the Potency [4] was inconclusive: 68.6 µM [inhibitor, single point]. The Potency [5] was inconclusive: 7.76 µM [rising, partial curve], the Potency [7] was “inactive” and the Potency (Aromatase (Homo sapiens)) was inconclusive: 77 µM [inhibitor, single point]. For the same compound, the Potency [12] was “inactive”.

With COc1nc(C)nc(N)n1 the Potency [1] was inconclusive: 24.3 µM [rising, partial curve], the Potency [3] was “inactive” and the Potency [8] was inconclusive: 30.6 µM [activator, partial curve, poor fit].

For O=C(O)CCCC[C@@H]1SC[C@@H]2NC(=O)N[C@@H]21, the Potency [1] was inconclusive: 8.63 µM [rising, full curve, poor fit], the Potency [3] was “inactive” and the Potency [10] was inconclusive: 26.8 µM [falling, single point]. For the same compound, the Potency [5] was inconclusive: 9.52 µM [cytotoxic, single point], the Potency [8] was “inactive” and the Potency (Aromatase (Homo sapiens)) was “inactive”. For the same compound, the activity change, negative = cytotoxicity [12] was inconclusive: 31.2%.
